The record followed here is the supplement of paper PMC11417369.

Some of the results follow.

This assay has as its system PfSIP2 AP2 domain 1 (GST-tagged). As to the kind of experiment: gcPBM binding intensity (ln(normalized median fluorescence intensity)); higher = stronger DNA binding. The procedure, abridged:
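An Agilent 4 × 180k array carrying primer-extended double-stranded 36-bp intergenic genomic probes and negative controls received GST-tagged P. falciparum DNA-binding domains expressed in E. coli, about 25 μg on average, for 1 h. The binding buffer contained 1× PBS, 1% milk, 0.2 mg/ml BSA, 0.5% salmon testes DNA and 0.03% Triton X-100. Binding intensity is the top Masliner-normalised natural-log median intensity across replicate spots of either probe orientation, read after Alexa488 anti-GST antibody staining and a 488 nm scan.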
With “TATTTTATTGTTGTTATACACACCATATAAAATATT [CACACA_site1630]”, the “gcPBM binding intensity (ln)” value was 6.98.
On to “ACTTGACACCAACACACACACATATATAAAAAAAAA [CACACA_site756]”, for which the “gcPBM binding intensity (ln)” value was 7.92.
For “AACAAAAATGAAAAAACACACATAACATATATAAAT [CACACA_site740]”, the “gcPBM binding intensity (ln)” value was found to be 6.94.
Turning to “AAAAAAAAAAAAAAAGTGCACTGAAAATATATTGAA [GTGCAC_site9395]”, the “gcPBM binding intensity (ln)” value turned out to be 10.9.
For “TTTTTAATTATTTATATAACGATAATCCTTACATAA [TGCATGCA_negctrl_site180]” the value was 6.96.
For “ATAATATAAATAAAAACACACACAATCGTACATATA [CACACA_site9223]” the value was 7.07; for “ATATATTGATATATGTGTACATAGCTTATTTCATTT [XGTACX_site1800]”, 6.95; for “ATATAATATATGTAAGTGCGCTTATAAATAAAACGA [GTGCAC_site9841]”, 8.11.
Turning to “TATATAGAAAACAAGGCATGCAAATAACAAATTGTG [TGCATGCA_site473]”, the “gcPBM binding intensity (ln)” value worked out at 6.99.
Consider “AAAAAAAAAAAAAAGACACACAATGTGAAATAATAA [CACACA_site804]”, for which the “gcPBM binding intensity (ln)” value is 7.04.
The value for “AATATATTTCGAGATACACACATATATAAAAAAAAA [CACACA_site3398]” was 7.14; that for “AATAGAACAAATAAAACACACACATATATATATATA [CACACA_site8893]” was 9.42; that for “ATATATCACAATAAAATTTATAGAATTTTAAATAAG [TGCATGCA_negctrl_site437]” was 6.94.
For “AAAATAAAATAAAATACACACATACATACATACAAA [CACACA_site5366]” the value was 7.1; for “CAATAAAGAGGGAATTGTACTTTAAATATCCCTCTT [XGTACX_site1991]”, 6.86; for “ATATTATATATATACACACACACATGCATGCACATA [CACACA_site7917]”, 8.98.
Consider “TAAAATTTGCGATGCACACAGAATAGCTAATATGAC [CACACA_site2995]”, for which the “gcPBM binding intensity (ln)” value was 7.72.
The value for “TATTTTCTCGTTTGCATGCACCTTATTTTATGTGGT [GTGCAC_site9470]” was 10.8.
For “TACTAAAACCCATACACACACATATTTATAGTACCA [CACACA_site7484]”, the “gcPBM binding intensity (ln)” value worked out at 6.99.
On to “AGTTATTTTAAATGTAGTACACAAAAGAAATATTAA [XGTACX_site4092]”, for which the “gcPBM binding intensity (ln)” value is 7.12.
For “CATAAATTAAAACACACACACACAAAAAAAAAAAAA [CACACA_site2262]” the value was 7.01; for “TTTAAAAATATATATTGTACATATATATATCTATGA [XGTACX_site3556]”, 7.02.
The value for “ATAAAAATTAAAAGGAGTACTTAAATATTAAGATGG [XGTACX_site4815]” was 6.97; that for “TACTATTTAAAATTTGAACACACATTATTTATTTTA [CACACA_site9020]” was 7.02; that for “TTTATTTAAAAAATAAAAAAAAAAAAAAAAAAAAAA [CACACA_negctrl_site1670]” was 6.74.
The value for “TATACAATATATATAACACACATATTTATATAAAAT [CACACA_site5061]” was 7.06; that for “CAGTTGGAAGGAAAGTGTACATAAAAAAAAATATAA [XGTACX_site8784]” was 7.39; that for “AAAATACCATTTGAAACACACAAAAAAAAAAAAAAT [CACACA_site2981]” was 6.81.
“AACATAAAAATTGAAGCACACACACTAATGAAATAC [CACACA_site8287]”: the “gcPBM binding intensity (ln)” value stood at 7.56.
For “ACAAATCTATAAGAGTGTACGAACAGTAAAGGAATT [XGTACX_site2070]” the value was 7.35; for “ATAAAAATCTTTAGTAGTACATTATAAAAAACTATT [XGTACX_site5531]”, 6.99.
For the sequence “TTTTTAATATATATCACACATATATATTTTTAATTA [CACACA_site6099]”, the “gcPBM binding intensity (ln)” value came to 6.98.
For the sequence “ATGTGAACATTCAATGCACACGATGTAATTATACAT [CACACA_site15]”, the “gcPBM binding intensity (ln)” value was found to be 6.97.
The value for “CTAATCGTGCACAACTGTACATTTGTCAAGGGCAAT [XGTACX_site8662]” was 10.4.
“TATATATCTGTGAAAATACTTAAATTGTTATAAAAA [CACACA_negctrl_site1109]”: the “gcPBM binding intensity (ln)” value is 6.78.
With “CGGCTATTTCTATATACATGCATTTAAAAAAAAAAT [TGCATGCA_site354]”, the “gcPBM binding intensity (ln)” value was determined as 7.27.
For the sequence “AAAAAAAAAATGAGCACACATAAATAAAAACAAACA [CACACA_site1573]”, the “gcPBM binding intensity (ln)” value came to 7.08.
For “ACCTATTTCAAACACACACACACACTAACAAACATA [CACACA_site8233]” the value was 7.7; for “AACATATATTAGCTTACATGCAAAAAGTAAAAAAAT [TGCATGCA_site10]”, 7.07; for “AAAACATCAAAAATGTGTACATATATATATATATAT [XGTACX_site8884]”, 9.78.
For “ATATATATATATGCATGTACATATTTATCTTTATAT [XGTACX_site232]” the value was 9.17; for “AATTTAAAACGGAGATGTACATATATAAATATATAC [XGTACX_site3723]”, 7.08.
The value for “TATTTTTTATTTTAAATCCTCTGATATTTAATTTGT [TGCATGCA_negctrl_site84]” was 6.62.
For “TATCCCCTTGTCCATATTAATTGTGACATCATATAT [XGTACX_negctrl_site9]”, the “gcPBM binding intensity (ln)” value stood at 7.09.
On to “ATGTGTATATATATGTGTACATAATTTGTGTTATTC [XGTACX_site2509]”, for which the “gcPBM binding intensity (ln)” value was determined as 7.26.
For “AAGGTATAATATATTTGTACATATACATTTTTGAAT [XGTACX_site6493]”, the “gcPBM binding intensity (ln)” value amounted to 6.98.
On to “TGAAAAATGTAATGCTCACACATATATATATATATA [CACACA_site5213]”, for which the “gcPBM binding intensity (ln)” value is 9.69.
The value for “GATTTTAATGGGTGTACACATTTATTTATATAAAGT [CACACA_site5317]” was 7.54; that for “TTATGGTGCATGAAATCACACATTGATATATATGCT [CACACA_site5352]” was 11.3; that for “ATATATATATATATATGTACATATATATATTATATT [XGTACX_site6303]” was 9.58.
The value for “GTGTCTTTTATTAAATGTACATATTCATAGATAAAA [XGTACX_site8578]” was 7.53; that for “TTATTTTTTTGGAATTCACACACAAAAAAAAAAATA [CACACA_site8650]” was 6.98; that for “AATTGAGAAGTGTGTTGTACATAATGGCACATACCT [XGTACX_site1370]” was 7.22.
For “TAGAATGAAAAAAAAGCATGCGGGCAAAAATTTTTA [TGCATGCA_site926]” the value was 6.75.
Regarding “ACCTTAAAAATAACTGCACACAAAAATAAATACCTT [CACACA_site8902]”, the “gcPBM binding intensity (ln)” value was 7.71.
For “ACGTAAACATGTAGAAGGCATTACACAATGGTATAC [TGCATGCA_negctrl_site512]”, the “gcPBM binding intensity (ln)” value is 6.75.
